Consider 18 sequences from PMC12820563.

The list shows a part of the results. The list includes weakly bound sequences.

For the experiment, the target named is T1, MBP-FoxP3dN (UniProt Q99JB6).
T1 sequence: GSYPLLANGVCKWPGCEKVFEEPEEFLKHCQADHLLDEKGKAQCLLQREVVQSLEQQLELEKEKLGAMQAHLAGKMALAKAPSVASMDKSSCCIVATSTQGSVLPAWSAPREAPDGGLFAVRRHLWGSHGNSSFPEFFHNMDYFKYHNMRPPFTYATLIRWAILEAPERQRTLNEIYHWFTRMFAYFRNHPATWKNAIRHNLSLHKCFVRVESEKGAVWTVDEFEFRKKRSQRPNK
The experiment can be described thus: PD-seq (MBP pull-down with sequencing). As to conditions: 20 mM Tris-HCl pH 7.5, 100 mM NaCl, 1.5 mM MgCl2, 0.4 uM protein, 0.1 uM dsDNA library, 30 min, room temperature, amylose pull-down; high values mean tight binding; double strand, one strand shown.
As for “GATGATTGTTCTCCCAGCTGATGAATTTAGGTGGTCGAGTAAACAAATTTTCCTAATCTTTCTGTTCAAGCGCCATCTAC”, the binding signal (RPM ratio (pull-down/input)) was determined as 0.58.

For the sequence “GATGATTGTTCTCCCAGCTGATGAATTCAAAACGTCGAGTAAACAAATTTTCCTAATCTTTCTGTTCAAGCGCCATCTAC”, the binding signal (RPM ratio (pull-down/input)) came to 0.352.

As for “GATGATTGTTCTCCCAGCTGATGAATTCTTCGGCTCGAGTAAACAAATTTTCCTAATCTTTCTGTTCAAGCGCCATCTAC”, the binding signal (RPM ratio (pull-down/input)) amounted to 0.175.

Consider “GATGATTGTTCTCCCAGCTGATGAATTACCGCGGTCGAGTAAACAAATTTTCCTAATCTTTCTGTTCAAGCGCCATCTAC”, for which the binding signal (RPM ratio (pull-down/input)) amounted to 0.284.

As to “GATGATTGTTCTCCCAGCTGATGAATTAGTCTTTTCGAGTAAACAAATTTTCCTAATCTTTCTGTTCAAGCGCCATCTAC”, the binding signal (RPM ratio (pull-down/input)) was found to be 0.639.

Consider “GATGATTGTTCTCCCAGCTGATGAATTTTGTGAATCGAGTAAACAAATTTTCCTAATCTTTCTGTTCAAGCGCCATCTAC”, for which the binding signal (RPM ratio (pull-down/input)) was found to be 0.828.

Turning to “GATGATTGTTCTCCCAGCTGATGAATTTCTTTGTTCGAGTAAACAAATTTTCCTAATCTTTCTGTTCAAGCGCCATCTAC”, the binding signal (RPM ratio (pull-down/input)) is 2.28.

Consider “GATGATTGTTCTCCCAGCTGATGAATTAACGCAGTCGAGTAAACAAATTTTCCTAATCTTTCTGTTCAAGCGCCATCTAC”, for which the binding signal (RPM ratio (pull-down/input)) was found to be 0.599.

Consider “GATGATTGTTCTCCCAGCTGATGAATTAGCAGTGTCGAGTAAACAAATTTTCCTAATCTTTCTGTTCAAGCGCCATCTAC”, for which the binding signal (RPM ratio (pull-down/input)) amounted to 0.643.

With “GATGATTGTTCTCCCAGCTGATGAATTTCTTAGTTCGAGTAAACAAATTTTCCTAATCTTTCTGTTCAAGCGCCATCTAC”, the binding signal (RPM ratio (pull-down/input)) was determined as 0.645.

Consider “GATGATTGTTCTCCCAGCTGATGAATTCATTGGTTCGAGTAAACAAATTTTCCTAATCTTTCTGTTCAAGCGCCATCTAC”, for which the binding signal (RPM ratio (pull-down/input)) stood at 2.03.

Turning to “GATGATTGTTCTCCCAGCTGATGAATTTCCAGTCTCGAGTAAACAAATTTTCCTAATCTTTCTGTTCAAGCGCCATCTAC”, the binding signal (RPM ratio (pull-down/input)) came to 0.251.

Take “GATGATTGTTCTCCCAGCTGATGAATTACGGGCGTCGAGTAAACAAATTTTCCTAATCTTTCTGTTCAAGCGCCATCTAC”: the binding signal (RPM ratio (pull-down/input)) was 0.56.

As to “GATGATTGTTCTCCCAGCTGATGAATTATGGGATTCGAGTAAACAAATTTTCCTAATCTTTCTGTTCAAGCGCCATCTAC”, the binding signal (RPM ratio (pull-down/input)) turned out to be 0.447.

Consider “GATGATTGTTCTCCCAGCTGATGAATTCTGGACGTCGAGTAAACAAATTTTCCTAATCTTTCTGTTCAAGCGCCATCTAC”, for which the binding signal (RPM ratio (pull-down/input)) is 0.242.

As to “GATGATTGTTCTCCCAGCTGATGAATTGTCGTAGTCGAGTAAACAAATTTTCCTAATCTTTCTGTTCAAGCGCCATCTAC”, the binding signal (RPM ratio (pull-down/input)) came to 0.56.

Consider “GATGATTGTTCTCCCAGCTGATGAATTAAAGGGGTCGAGTAAACAAATTTTCCTAATCTTTCTGTTCAAGCGCCATCTAC”, for which the binding signal (RPM ratio (pull-down/input)) was 0.279.

Regarding “GATGATTGTTCTCCCAGCTGATGAATTTGCCACTTCGAGTAAACAAATTTTCCTAATCTTTCTGTTCAAGCGCCATCTAC”, the binding signal (RPM ratio (pull-down/input)) turned out to be 2.63.
